# Results: PubChem BioAssay AID493208 (National Center for Advancing Translational Sciences (NCATS), 2011)
# The campaign covered roughly 44,000 compounds. About 340 (0.77%) were called active. Roughly 5% stayed inconclusive and do not appear here. Calls come from the whole dose curve; as a rule, active = well fitted inhibition curve with a large enough effect; inconclusive = small, poorly fitted or top-dose-only effect; inactive = flat fitted curve, though single readings scatter. Some of the results follow.
# Experiment: Acumen qHTS Assay for Inhibitors of the mTORC1 Signaling Pathway in MEF (Tsc2-/-, p53-/-) Cells: Sytravon;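 note: plate controls were DMSO for no effect and rapamycin for full effect; nearly all actives have a fitted effect of over 50% in size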
# Conditions: phospho-rpS6 immunofluorescence/PI, 24 h; series mostly up to 38.3 µM; activity change, negative = inhibition: at the top concentration
# Outline: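 Immunofluorescence of rpS6 phosphorylation in Tsc2-/-, p53-/- MEFs after 24 h compound exposure, normalized to propidium iodide signal. Activity is expressed as % positive cells, thresholded with 7.5 nM rapamycin.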
row,Structure (SMILES),"activity change, negative = inhibition"
1,COCc1nc2ccccc2n1CCOc1cccc(C)c1,inactive: -1.66%
2,CC(=O)c1cccc(NC(=O)c2oc3c(c2C)-c2nn(Cc4ccc(Cl)cc4)cc2CC3)c1,inactive: 4%
3,COc1ccccc1NC(=O)CSC1=Nc2ccccc2C2=NC(CC(=O)NCc3ccco3)C(=O)N12 (centres undefined),inactive: 1.01%
4,CCc1ccc(-n2nc(C)c3c(C)cc(=O)n(Cc4nc(-c5ccccc5)oc4C)c32)cc1,inactive: -10.9%
5,Cc1ccc(NC(=O)CN2C(=O)CCc3cc(S(=O)(=O)N4CCOCC4)ccc32)cc1F,inactive: 16.9%
6,Cc1cccc(CNC(=O)CCn2c(=O)c3cccn3c3ccc(F)cc32)c1,inactive: -7.41%
7,COc1ccc(NC(=O)c2oc3ccc(S(=O)(=O)N4CCCCC4)cc3c2C)cc1,inactive: -12.8%
8,CCOc1ccc(CNC(=O)C2Cc3ccccc3N2C(=O)CC)cc1OC (centres undefined),inactive: 0%
9,CCCc1nn2c(=O)cc(COC(=O)c3ccccc3NC(=O)COc3ccccc3F)nc2s1,inactive: 0.335%
10,Cc1nc2c(C(=O)NCCCN(CC(C)C)CC(C)C)cnn2c(C)c1Cc1c(F)cccc1Cl,inactive: 4.88%
11,CCCOC(=O)c1c(NC(=O)c2nc3ncccn3n2)sc(C(N)=O)c1C,inactive: 8.15%
12,COc1cccc(CNCCNC(=O)c2nonc2N)c1,inactive: 4.81%
13,O=C(NCc1ccccc1Cl)c1cc2c(s1)-c1ccc(Cl)cc1SC2,inactive: -4.84%
14,CCSc1nc2c([nH]c3ccccc32)c(=O)n1CC,inactive: 2.36%
15,Cc1cccc(NS(=O)(=O)c2c(C)nc3sccn3c2=O)c1C,inactive: -1.52%
16,CCOC(=O)CSc1nc(-c2ccc(C)cc2C)cc(-c2ccccc2)c1C#N,inactive: 3.4%
17,CCOc1ccccc1NC(=O)N1CC(CC)Oc2ccccc21 (centres undefined),inactive: 12.3%
18,Cc1ccc(C(=O)CSc2nc(-c3ccccc3)nc3c2CCCC3)cc1,inactive: 3.56%
19,CC(C)(C)C(=O)Nc1cccc(-c2cn3cccnc3n2)c1,inactive: -2.19%
20,COc1cccc(-n2c(=O)c3c(C)c(C)sc3n(CC(=O)NCc3ccc(C)cc3)c2=O)c1,inactive: -18.9%
21,Cc1cccc(CSc2ncc(Cl)c(C(=O)Nc3sc4c(c3C(N)=O)CCCC4)n2)c1,inactive: -6.07%
22,O=C(Cn1c(=O)nc(-c2ccccc2)c2ccccc21)Nc1cccc(C(F)(F)F)c1,inactive: 5.48%
23,Cc1c(C(=O)NCc2cccc(Cl)c2)sc2ncnc(N(C)C3CCCCC3)c12,inactive: -5.3%
24,COc1ccc(-c2cn(-c3ccc(C)cc3)c(S(=O)(=O)CC(=O)Nc3ccc(F)cc3)n2)cc1,inactive: -2.73%
25,COc1ccccc1NC(=O)c1cc(=O)c2ccc(C)c(C)c2o1,inactive: -6.57%

row,Structure (SMILES),"activity change, negative = inhibition"
1,CCOC(=O)c1ccc2c(c1)N(CC(=O)N(C)c1ccccc1)C(=O)c1ccccc1S2,inactive: -1.21%
2,Cc1ccc(Cc2c(C)nc3nc(SCC(=O)NC4CCC(C)CC4)nn3c2C)cc1 (centres undefined),inactive: 0%
3,CCOc1ccc(CCNC(=O)c2cc3c(=O)oc4ccc(C)cc4c3s2)cc1OCC,inactive: 6.97%
4,N#C/C(=C\c1ccc(-c2ccc(C(=O)O)cc2)o1)C(=O)Nc1ccccc1C(=O)O,inactive: 7.31%
5,Cc1nn(CCC(=O)Nc2cc(F)ccc2F)c(=O)c2nn(-c3ccccc3)c(C)c12,inactive: -0.137%
6,O=C(CC1N=C2c3ccccc3N=C(SCc3cccc(Cl)c3)N2C1=O)NCc1ccc2c(c1)OCO2 (centres undefined),inactive: 0.136%
7,CC1CCCCN1C(=O)CSc1n[nH]c(-c2ccccc2Cl)n1 (centres undefined),inactive: 2.36%
8,COc1cc(Nc2nc(SCC(=O)c3ccc(Br)cc3)nc3ccccc23)cc(OC)c1,inactive: -18.4%
9,Cc1ccccc1NC(=O)CSc1nnc(COc2ccc(Cl)cc2)o1,inactive: -9.38%
10,CCOCCn1ccc2c(OCC(=O)NCc3ccc(C)cc3)cccc2c1=O,inactive: -5.28%
11,CCCSc1ncc(Cl)c(C(=O)NCc2ccc(OC)cc2)n1,inactive: -4.74%
12,CN(C)CCNC(=O)c1ccc2c(c1)N(Cc1ccccc1)C(=O)c1ccccc1S2(=O)=O,inactive: -0.45%
13,COc1ccc(-c2cn3nc(N4CCCC(C(=O)Nc5cccc(Cl)c5C)C4)sc3n2)cc1 (centres undefined),inactive: 4.22%
14,O=C1c2[nH]nc(-c3ccccc3O)c2C(c2cccc(O)c2)N1Cc1ccncc1 (centres undefined),inactive: -1.64%
15,O=C(Cn1cc(C(=O)c2ccncc2)c(=O)c2cc(F)ccc21)Nc1ccc(Cl)cc1,inactive: -0.516%
16,COCCCNC(=O)N1[C@H](c2cccs2)[C@@H](C)C(=O)[C@@H](C)[C@@H]1c1cccs1,inactive: 2.56%
17,COc1cccc(-n2cc(C(=O)OCc3ccc(F)c(F)c3)c3ccccc3c2=O)c1,inactive: -9%
18,Cc1ccc2c(c1)N(S(=O)(=O)c1cc(-c3onc(C)c3C)ccc1C)CCO2,inactive: -28%
19,O=C(CN1C(=O)COc2ccc(S(=O)(=O)N3CCCC3)cc21)N1CCN(c2ccc(Cl)cc2)CC1,inactive: -2.34%
20,Cc1ccc(O)c(NC(=O)c2noc3c2CCCC3)c1,inactive: -1.44%
21,COc1ccccc1CNC(=O)CCn1c(=O)c2ccccc2n(CC(=O)Nc2ccc(Br)cc2F)c1=O,inactive: -7.65%
22,O=C(Nc1ccc(F)c(Cl)c1)C1CCN(S(=O)(=O)c2ccc3[nH]c(=O)ccc3c2)CC1,inactive: -10.7%
23,Cc1ccc(C(=O)Nc2nc3n(n2)C(c2ccc(F)cc2)C=C(c2ccccc2)N3)cc1 (centres undefined),inactive: -7.2%
24,CCOC(=O)c1c(NC(=O)c2ccc(Br)cc2)sc2c1CCCC2,inactive: -1.06%
